# In PubChem BioAssay AID1476 (National Center for Advancing Translational Sciences (NCATS), 2009):
# Several values for one entry are separate records, joined by “and”; a condition that tells them apart may be missing. Equal values may be shown once. About 4,500 (2.2%) of roughly 200,000 compounds were called active. Inconclusive results, whose numbers are uncertain, are shown with a selection of clear calls. Calls follow the shape of the dose curve; as a rule, active = well fitted inhibition curve with a large enough effect; inconclusive = small, poorly fitted or top-dose-only effect, or effect the other way; inactive = flat fitted curve, though single readings scatter. Potencies beside an inconclusive call are fits to weak or partial responses and may not hold up.
# Target: Cruzipain (Trypanosoma cruzi) (UniProt P25779)
# Test: qHTS Assay for Promiscuous and Specific Inhibitors of Cruzain (without detergent); also: nearly all actives have a fitted effect of over 40% in size;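 as to max response, negative = inhibition: plate controls were enzyme without inhibitor for no effect and buffer without enzyme for full effect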
# Conditions: purified cruzain, Z-FR-AMC fluorescence, no detergent
# How it was run: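 Detergent-free condition (0.00005% Triton X-100) in acetate buffer pH 5.5 with DTT. 1.5 nM enzyme and compound were pre-mixed 15 min, then 2 uM Z-FR-AMC substrate added; reaction progress from fluorescence change between first and third reads (60 s).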
# Potency is read from the fitted curve at half-maximal effect; tags tell the direction and shape of the fitted curve.
# UniProt P25779, sequence (P25779 whole entry, looked up): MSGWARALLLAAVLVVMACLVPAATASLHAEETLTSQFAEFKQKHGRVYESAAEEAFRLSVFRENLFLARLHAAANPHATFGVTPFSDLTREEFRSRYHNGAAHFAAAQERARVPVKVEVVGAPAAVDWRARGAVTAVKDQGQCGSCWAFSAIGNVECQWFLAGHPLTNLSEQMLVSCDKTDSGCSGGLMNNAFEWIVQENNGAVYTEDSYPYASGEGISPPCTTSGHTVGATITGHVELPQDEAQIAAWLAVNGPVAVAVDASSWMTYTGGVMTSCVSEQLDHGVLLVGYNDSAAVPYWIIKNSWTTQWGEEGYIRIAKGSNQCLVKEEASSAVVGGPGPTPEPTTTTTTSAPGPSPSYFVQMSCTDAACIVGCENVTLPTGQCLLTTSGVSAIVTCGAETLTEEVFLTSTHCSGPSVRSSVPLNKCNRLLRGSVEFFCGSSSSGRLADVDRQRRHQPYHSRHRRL
SMILES,Potency,"max response, negative = inhibition"
Cc1sc(NC(=O)c2ccc(OCC(C)C)cc2)c(C(N)=O)c1-c1ccc(Cl)cc1Cl,active: 10 µM,–
Cc1ccc(NC(=O)CSc2ncccc2C(=O)Oc2cccc([N+](=O)[O-])c2)cc1Cl,"inconclusive: 39.8 µM [inhibitor, single point]",–
CCC(=O)Nc1ccc(S(=O)(=O)NCc2cccn2Cc2cccc(C)c2)cc1,–,inactive: 6.21%
COc1cccc(NC(=O)Cn2c(=O)n(Cc3nc(-c4ccccc4)no3)c(=O)c3ccccc32)c1,–,inactive: -6.75%
COc1ccc(OC)c(CNC(=O)c2cc(=O)[nH]c3ccc(S(=O)(=O)N4CCCCC4C)cc23)c1 (stereo not drawn),"inconclusive: 39.8 µM [activator, single point]",–
CO[C@@]1(NC(=O)Cc2cccs2)C(=O)N2C(C(=O)O)=C(COC(N)=O)CSC21 (stereo partly drawn),"inconclusive: 39.8 µM [activator, single point]",–
C/C(=N\N=C(/N)SC1CC(=O)N(c2ccc(Cl)c(Cl)c2)C1=O)c1cccs1 (stereo not drawn),active: 31.6 µM,–
COc1ccc(C(=O)c2ccc(OC)c(Br)c2)cc1Br,"inconclusive: 39.8 µM [inhibitor, single point]",–
O=S(=O)(Nc1cccc(-c2cn3cccnc3n2)c1)c1ccc(-c2ccccc2)cc1,"inconclusive: 31.6 µM [inhibitor, single point]",–
Cc1csc2nc(-c3cccc(NC(=O)c4ccc(S(N)(=O)=O)cc4)c3)cn12,–,inactive: -21.3%
Cc1ccc(C(=O)N2c3nc(-c4ccco4)nn3C3(CCCCC3)[C@@H]3CCCC[C@@H]32)cc1,–,inactive: 2.1%
COc1ccccc1-c1cc(-c2cc(Cl)ccc2O)n[nH]1,active: 25.1 µM,–
Cc1cc2oc(=O)cc(CN3CCN(S(=O)(=O)c4cccs4)CC3)c2cc1C(C)C,"inconclusive: 31.6 µM [inhibitor, single point]",–
Cc1ccc(N(CC(=O)N2CCn3c2nc2ccccc23)S(=O)(=O)c2c(C)n[nH]c2C)cc1,"inconclusive: 31.6 µM [activator, single point]",–
Cc1ccc(C(=O)NCCn2c(N)c(C#N)c3nc4ccccc4nc32)cc1,"inconclusive: 39.8 µM [inhibitor, single point]",–
CCn1c(=N)c(C(=O)NCCCOC)cc2c(=O)n3cccc(C)c3nc21,"inconclusive: 39.8 µM [inhibitor, single point]",–
CCCCSc1nnc(-c2cc3c(C(F)(F)F)nn(C)c3s2)n1C,"inconclusive: 25.1 µM [activator, single point]",–
CS(=O)(=O)c1nc(-c2ccccc2)cc(-c2ccccc2)c1C#N,"inconclusive: 31.6 µM [inhibitor, single point]",–
CCCSCCCNC(=O)C1CCCN(C(=O)c2cnn(-c3ccccc3)c2-n2cccc2)C1 (stereo not drawn),"inconclusive: 39.8 µM [activator, single point]",–

SMILES,Potency,"max response, negative = inhibition"
COc1cccc([C@@H]2Oc3ccc(OC)cc3C(=O)[C@H]2OC(=O)Nc2cc(OC)c(OC)c(OC)c2)c1,"inconclusive: 31.6 µM [activator, single point]",–
CC1=CC(C)(C)n2c(O)c(C3=NC(=S)NC3=O)c3cc(OC(=O)c4cccc5ccccc45)cc1c32,active: 3.16 µM,–
COc1cccc(-c2csc(N3CCN(Cc4ccccc4)CC3)n2)c1,–,inactive: -24.2%
Cc1ccccc1NC(=O)COC(=O)CNC(=O)c1sc2ccccc2c1Cl,active: 3.16 µM,–
Cc1ccc2c(c1)N(CC(=O)N(Cc1ccc3c(c1)OCO3)CC1CCCO1)C(=O)C(C)O2 (stereo not drawn),"inconclusive: 20 µM [activator, single point]",–
C=CCNc1ncnc2c1[nH]c1ccc(Cl)cc12,active: 12.6 µM,–
O=C(CCC(=O)OCC(=O)c1ccc(-c2ccccc2)cc1)Nc1cccc(Cl)c1,active: 25.1 µM,–
CC(Sc1nc(N2CCOCC2)nc(N2CCOCC2)n1)C(=O)Nc1ccccc1 (stereo not drawn),"inconclusive: 20 µM [activator, single point]",–
COc1cccc(N2CCN(C(=O)CN3CCSc4ccc(S(=O)(=O)N(C)C)cc43)CC2)c1,"inconclusive: 39.8 µM [activator, single point]",–
COc1ccc(NC(=O)C2CCN(C3=NS(=O)(=O)C(c4ccc(C)c(C)c4)=C3C)CC2)cc1OC,"inconclusive: 15.8 µM [activator, partial curve]",–
COC(=O)c1ccc(OCC2c3cc(OC)c(OC)cc3CCN2C(=O)c2cccc(C)c2)cc1 (stereo not drawn),"inconclusive: 31.6 µM [activator, single point]",–
CC[C@H](C)[C@@H](NC(=O)O[C@@H]1Cc2cc(Br)ccc2O[C@H]1c1cccc(OC)c1)C(=O)OC,–,inactive: 1.84%
Cc1nn(C(=O)c2ccco2)c(C)c1CN1C(=O)c2ccccc2C1=O,–,inactive: -2.84%
COc1ccc2c(c1)NC(c1ccc(F)cc1)=NC(c1ccc(F)cc1)=N2,"inconclusive: 39.8 µM [inhibitor, single point]",–
O=c1c(O)c(-c2ccc(O)cc2)oc2cc(O)ccc12,"inconclusive: 31.6 µM [inhibitor, single point]",–
Cc1ccc(/C=C/c2onc(C)c2S(=O)(=O)N2CCC(C(=O)NCc3ccco3)CC2)cc1,–,inactive: -8.7%
Cc1ccc(-c2nn3c(-c4ccco4)nnc3c3ccccc23)cc1S(=O)(=O)NCC1CCCO1 (stereo not drawn),"inconclusive: 25.1 µM [activator, single point]",–
CCCCC1=C(C(=O)OCC)C(C(=O)OCC)Oc2ccccc21 (stereo not drawn),–,inactive: 5.26%
C[C@H]1O[C@@H](O[C@H]2[C@@H](O)C[C@H](O[C@H]3[C@@H](O)C[C@H](O[C@H]4CC[C@@]5(C)[C@H](CC[C@@H]6[C@@H]5C[C@@H](O)[C@]5(C)[C@@H](C7=CC(=O)OC7)CC[C@]65O)C4)O[C@@H]3C)O[C@@H]2C)C[C@H](O)[C@@H]1O,"inconclusive: 20 µM [activator, partial curve] and inconclusive: 31.6 µM [activator, partial curve] and inconclusive: 15.8 µM [activator, partial curve]",–
